Consider 42 sequences from PMC7819943, “Rice protein-binding microarrays: a tool to detect cis-acting elements near promoter regions in rice”.

This is one part of the list.

In the test the target is T1, OsWOX13 (Oryza sativa, UniProt Q5QMM3 1-267).
T1 sequence: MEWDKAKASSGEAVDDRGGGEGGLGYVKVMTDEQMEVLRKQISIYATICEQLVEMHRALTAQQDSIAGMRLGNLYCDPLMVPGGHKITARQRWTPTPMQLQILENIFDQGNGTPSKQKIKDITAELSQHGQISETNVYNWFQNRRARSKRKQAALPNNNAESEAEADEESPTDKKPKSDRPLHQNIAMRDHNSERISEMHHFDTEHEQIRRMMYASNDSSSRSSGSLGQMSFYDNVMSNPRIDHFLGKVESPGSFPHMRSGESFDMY
Description: protein-binding microarray (RPBM); PBS, 2% BSA, 51.3 ng/ul salmon testes DNA, 50 uM zinc acetate, 200 nM TF, 25 C, 1 h; high values mean tight binding. The following applies: protein: recombinant; tags: N-terminal polyhistidine and DsRed monomer fusion (pET32a); label: CyDye5-dUTP incorporated in the synthesized complementary strand; 3' TTTTT single-stranded linker to array surface; dsDNA, one strand shown. The procedure, abridged: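 Transcription factors, each fused N-terminally to a polyhistidine tag and DsRed, were expressed in E. coli BL21-CodonPlus and purified on Ni–NTA. A custom Agilent array was made double-stranded by primer extension with Cy5-dUTP and blocked with 2% BSA. It was incubated with 200 nM protein in PBS, 2% BSA, salmon testes DNA and 50 µM zinc acetate at 25 °C for 1 h, then washed. The binding signal is per-feature fluorescence intensity (arbitrary units) read on an Axon 4000B scanner.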
With “AATAACTCAAATCAGCTATAGTCAAACTTAATAGCTAATTCGGAGTCACCTAGTGCAG”, the binding signal was 6290 fluorescence intensity (a.u.).
As to “CTACGGTCATCATCAATCACCATGGATCTGAATCCTAACGCGGAGTCACCTAGTGCAG”, the binding signal was 27300 fluorescence intensity (a.u.).
Regarding “TAATGATTATCTCAGCAGATCAGATTTCGGGAGTGATTTACGGAGTCACCTAGTGCAG”, the binding signal is 11600 fluorescence intensity (a.u.).
The figure for “ATAATGACCAGTCTATAATGACCGGTTTTGTATGTTATGGCGGAGTCACCTAGTGCAG” is 6250 fluorescence intensity (a.u.); for “CCTTTTAAATTAAGGTATAAGGTATAGCCATATGCAAAGGCGGAGTCACCTAGTGCAG” it is 3260 fluorescence intensity (a.u.).
For “CTGATATCTGTCTTCACATAGATTAGGAGCAAAATTTATCCGGAGTCACCTAGTGCAG”, the binding signal is 3920 fluorescence intensity (a.u.).
The figure for “TAGTAGTTGACATCGTTGATTAGTGATTACTATGAAACAGCGGAGTCACCTAGTGCAG” is 34000 fluorescence intensity (a.u.); for “GGCACAAATTGGGCTGCAGATGAAATGAGCACATAATAAGCGGAGTCACCTAGTGCAG” it is 3550 fluorescence intensity (a.u.); for “ATTTGTAATCAAGTTTATATAAAATTTTAGCAACACCTATCGGAGTCACCTAGTGCAG” it is 4980 fluorescence intensity (a.u.).
As to “TGATAATTTAATTTAACATGTTTGTATTTGAAAAGCTCTTCGGAGTCACCTAGTGCAG”, the binding signal was 25500 fluorescence intensity (a.u.).
Turning to “TTCAAATCAAGATTTGAAAACTTTCAACTCGAGAATCAAGCGGAGTCACCTAGTGCAG”, the binding signal is 8080 fluorescence intensity (a.u.).
The figure for “GGTGACATTCAGTCATTGACATGTGGGACCCACATGTGCCCGGAGTCACCTAGTGCAG” is 19600 fluorescence intensity (a.u.).
Consider “TTATCCAAAACGTCAATTAATATAGAACTAGAGTGAGTACCGGAGTCACCTAGTGCAG”, for which the binding signal is 4500 fluorescence intensity (a.u.).
Take “GTTAATGAATCTAGACATATATATCTATCTAGATTCATTACGGAGTCACCTAGTGCAG”: the binding signal is 6740 fluorescence intensity (a.u.).
For “ATCAGCTGATTACCTCACTGCATCCGTATGATTCGACTTTCGGAGTCACCTAGTGCAG”, the binding signal is 7310 fluorescence intensity (a.u.).
The value for “ATACACTAAAATTACATATGTAATTTAGGGACTTACAATGCGGAGTCACCTAGTGCAG” was 7340 fluorescence intensity (a.u.).
The value for “GTGTGATGAATTCTTTTGTTTGATTGACATCTCCTGCTTGCGGAGTCACCTAGTGCAG” was 43100 fluorescence intensity (a.u.); that for “AGATAAATCAATATGTAATATATCACTCCACAACCATGCACGGAGTCACCTAGTGCAG” was 5500 fluorescence intensity (a.u.); that for “CATCATCACGTCCGTCATGATGGCGCAATCAAACTAACACCGGAGTCACCTAGTGCAG” was 3360 fluorescence intensity (a.u.).
Regarding “CACATTGACCAAAATTTAATGTTTGTTTCCTACTAGTGTGCGGAGTCACCTAGTGCAG”, the binding signal was 4440 fluorescence intensity (a.u.).
In the case of “TTAATTTGTGTGGATATGAATTTAAATTCATATTCATTTGCGGAGTCACCTAGTGCAG”, the binding signal is 5550 fluorescence intensity (a.u.).
Take “CAACCCAATCAGCAGACTCCTGATCCCGGCGAGCAAGGTACGGAGTCACCTAGTGCAG”: the binding signal was 3260 fluorescence intensity (a.u.).
Take “AACTGATGAATTTGTCTTTTCCGTTTAAACTTTGACCACCCGGAGTCACCTAGTGCAG”: the binding signal is 7140 fluorescence intensity (a.u.).
The value for “AAAATTTGACAAGATAGATTCATATGTAATATATCACCCCCGGAGTCACCTAGTGCAG” was 20900 fluorescence intensity (a.u.); that for “TGGAGATTGATGAAGTTACTACTAACGACTCGCTGTTGACCGGAGTCACCTAGTGCAG” was 30500 fluorescence intensity (a.u.).
As to “AAAACTGTAACTATGAATTACATCTAATATATTTGTGTCCCGGAGTCACCTAGTGCAG”, the binding signal was 3510 fluorescence intensity (a.u.).
For the sequence “TGTTAAATTTCCTTCAAAATTTGTATGGGAAGAGGTATTCCGGAGTCACCTAGTGCAG”, the binding signal was 4800 fluorescence intensity (a.u.).
For “ACATAATACATTTATTAATAAATTCTTATAAGATTTCATACGGAGTCACCTAGTGCAG”, the binding signal was 3800 fluorescence intensity (a.u.).
Take “AAGAGCTGATGGGAAAGATTGGTTTCTAGTGTTGGACCAGCGGAGTCACCTAGTGCAG”: the binding signal is 5360 fluorescence intensity (a.u.).
In the case of “TTGATATAGCTAATACTTAATTAATCATGCGCTAACGGACCGGAGTCACCTAGTGCAG”, the binding signal is 4660 fluorescence intensity (a.u.).
For “CAACCAATAAATTAGAACTCCATCTCGATCATGGTGTTATCGGAGTCACCTAGTGCAG”, the binding signal was 4370 fluorescence intensity (a.u.).
Consider “CCGAGACGTAGATAGTAAATAATTAGATTTCCCAGTACAGCGGAGTCACCTAGTGCAG”, for which the binding signal was 5860 fluorescence intensity (a.u.).
With “GATGAAATAGACAGAAGAGTGTGGCAGTCAAGGAGCCCTTCGGAGTCACCTAGTGCAG”, the binding signal is 12400 fluorescence intensity (a.u.).
Turning to “CCGTGATTAGCCATAAGTGCTACAGTAACCCACATGTGCTCGGAGTCACCTAGTGCAG”, the binding signal is 57900 fluorescence intensity (a.u.).
The value for “GACATCAGATTGAGTATCACTGAGTCTACCAATTGAAGGTCGGAGTCACCTAGTGCAG” was 6080 fluorescence intensity (a.u.); that for “AAAATGAAAATAATATATGATTTAAAATATATAAGTCATCCGGAGTCACCTAGTGCAG” was 3850 fluorescence intensity (a.u.); that for “TCCATGATTGAGACAATCCTAAGGAATTTCAAAAGATTTGCGGAGTCACCTAGTGCAG” was 46000 fluorescence intensity (a.u.).
For the sequence “AGCTTAAATAAAGTAATAATTAATTGGAACACTCCCAAAACGGAGTCACCTAGTGCAG”, the binding signal is 15500 fluorescence intensity (a.u.).
As to “TATATATATATATATATATATATATTGAAACATAGATATGCGGAGTCACCTAGTGCAG”, the binding signal was 20300 fluorescence intensity (a.u.).
On to “TTACCATTTAATTAAATTAAGAGGGATACATATCCATTATCGGAGTCACCTAGTGCAG”, for which the binding signal is 12900 fluorescence intensity (a.u.).
As to “GATTGCTCACTGATTGGAAAATTTGTATCTACCAGTATCCCGGAGTCACCTAGTGCAG”, the binding signal was 36000 fluorescence intensity (a.u.).
On to “TTTTAAAAGGTTGATTGAATCTTTTGCTAAGCATCAAATACGGAGTCACCTAGTGCAG”, for which the binding signal was 9890 fluorescence intensity (a.u.).
